Where a name gives a salt, the structure may show the parent alone. ± gives the standard deviation of the averaged measurements. Over roughly 1,900 compounds, “normalised cell viability (NPI; 0 = phenylarsine oxide control, 1 = DMSO control)” has its median near 1; the lowest 2% begin near 0.039. The list shows a part of the results.
Tested on: NCI-H1944
Test: normalised cell viability (NPI; 0 = phenylarsine oxide control, 1 = DMSO control) (fraction of DMSO control); NCI-H1944 is a non-small cell lung cancer line; higher = more viable cells (less compound toxicity)
Settings: 6 days
[1] = glucocorticoid arm: hydrocortisone 2.75 uM co-treatment, compound 1 µM
[2] = glucocorticoid arm: hydrocortisone 2.75 uM co-treatment, compound 5 µM
[3] = glucocorticoid arm: hydrocortisone 2.75 uM pre-treated 2 days and continued, compound 1 µM
[4] = glucocorticoid arm: hydrocortisone 2.75 uM pre-treated 2 days and continued, compound 5 µM
[5] = glucocorticoid arm: vehicle, compound 1 µM
[6] = glucocorticoid arm: vehicle, compound 5 µM
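Also: CTB read-out in 384-well plates, mean of triplicate wells, normalised per plate against 1 µM phenylarsine oxide and 0.1% DMSO, compounds added 24 h after seeding.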

Row | Compound | normalised cell viability [1] | normalised cell viability [2] | normalised cell viability [3] | normalised cell viability [4] | normalised cell viability [5] | normalised cell viability [6]
1 | NCCC[C@](N)(C(=O)O)C(F)F (racemic) [DL-alpha-Difluoromethylornithine hydrochloride] | 0.9853 ± 0.0063 | 0.923 ± 0.021 | 0.9873 ± 0.0064 | 0.932 ± 0.011 | 0.9863 ± 0.0055 | 0.9817 ± 0.0032
2 | c1ccc(NCc2ccc(CNc3ccccn3)cc2)nc1 | 1.013 ± 0.0058 | 1.002 ± 0.0068 | 1.005 ± 0.0081 | 0.984 ± 0.036 | 0.999 ± 0.0017 | 1.01
3 | COc1ccc2c(OCc3nnc4ccc(-c5ccccc5)nn34)ccnc2c1 | 0.997 ± 0.011 | 0.989 ± 0.014 | 0.999 ± 0.01 | 1 ± 0.016 | 1.003 ± 0.0061 | 0.991 ± 0.017
4 | COc1c2occc2cc2ccc(=O)oc12 [Methoxsalen] | 1.01 ± 0.027 | 0.834 ± 0.065 | 1.01 ± 0.011 | 0.92 ± 0.03 | 1.01 ± 0.01 | 0.774 ± 0.035
5 | CN1CCN(C2=Nc3ccccc3Oc3ccc(Cl)cc32)CC1 [Loxapine succinate] | 1.005 ± 0.0092 | 0.97 ± 0.028 | 0.995 ± 0.0087 | 1.04 ± 0.015 | 0.9983 ± 0.0029 | 1.02 ± 0.021
6 | CC1c2cccc(O)c2C(O)=C2C(=O)C3(O)C(O)=C(C(N)=O)C(=O)C(N(C)C)C3C(O)C21 (stereo unspecified) [Doxycycline hydrochloride] | 1 | 0.9303 ± 0.0093 | 0.99 ± 0.014 | 0.945 ± 0.018 | 0.9897 ± 0.0067 | 0.9743 ± 0.006
7 | C[C@@]1(C(=O)Nc2ccc(F)nc2)CCCN1c1nc(Nc2cc(C3CC3)n[nH]2)c2cccn2n1 | 0.446 ± 0.025 | 0.455 ± 0.016 | 0.537 ± 0.034 | 0.497 ± 0.093 | 0.595 ± 0.031 | 0.322 ± 0.051
8 | N#Cc1ccc(C(c2ccc(C#N)cc2)n2cncn2)cc1 [Letrozole] | 1.02 ± 0.015 | 1 ± 0.016 | 1.017 ± 0.0058 | 0.967 ± 0.016 | 1 | 1.017 ± 0.0058
9 | O=C(Nc1cccc(Cl)c1)c1ccccn1 | 0.972 ± 0.011 | 0.969 ± 0.012 | 0.9897 ± 0.006 | 0.993 ± 0.017 | 0.971 ± 0.012 | 0.998 ± 0.011
10 | NNCCc1ccccc1 [Phenelzine sulfate] | 0.998 ± 0.01 | 1.03 | 1.02 ± 0.017 | 1.02 ± 0.015 | 0.9807 ± 0.0065 | 0.9783 ± 0.0011
11 | NC1(C(=O)O)CCCCC1 [1-Amino-1-cyclohexanecarboxylic acid hydrochloride] | 0.998 ± 0.011 | 0.9907 ± 0.0081 | 0.9927 ± 0.0049 | 0.991 ± 0.013 | 0.9913 ± 0.009 | 0.999 ± 0.011
12 | CC(=O)Nc1ccc(C(=O)Nc2ccccc2N)cc1 | 1.02 ± 0.011 | 1.063 ± 0.0058 | 1.033 ± 0.0058 | 1.06 ± 0.011 | 0.9833 ± 0.0057 | 0.906 ± 0.052
13 | CC(=O)Nc1ccc(C(=O)Nc2ccccc2N)cc1 [CI994 (Tacedinaline)] | 0.9813 ± 0.0093 | 1.03 ± 0.029 | 0.999 ± 0.012 | 1.02 ± 0.02 | 0.9707 ± 0.0072 | 0.9157 ± 0.008
14 | O=C(O)[C@]1(Cc2cccc(Nc3nccs3)n2)CC[C@@H](Oc2cccc(Cl)c2F)CC1 | 0.995 ± 0.013 | 1 ± 0.071 | 0.997 ± 0.013 | 1 ± 0.038 | 0.895 ± 0.11 | 0.577 ± 0.27
15 | C#Cc1cccc(Nc2ncnc3cc(OC)c(OCCCCCCC(=O)NO)cc23)c1 | 0.942 ± 0.019 | 0.809 ± 0.15 | 0.962 ± 0.021 | 0.959 ± 0.041 | 0.921 ± 0.023 | 0.594 ± 0.43
16 | CC(=O)S[C@@H]1CC2=CC(=O)CC[C@]2(C)[C@H]2CC[C@@]3(C)[C@@H](CC[C@@]34CCC(=O)O4)[C@H]12 [Spironolactone] | 0.9813 ± 0.0061 | 0.955 ± 0.026 | 0.867 ± 0.22 | 0.987 ± 0.022 | 0.9787 ± 0.0047 | 0.9853 ± 0.0035
17 | CC(C)(C)NCC(O)COc1cccc2[nH]c(=O)[nH]c12 (racemic) | 0.9973 ± 0.0023 | 0.974 ± 0.014 | 0.992 ± 0.015 | 0.988 ± 0.0076 | 0.9853 ± 0.0067 | 0.985 ± 0.0053
18 | N#Cc1c(-c2ccccc2)no[n+]1[O-] [4-Phenyl-3-furoxancarbonitrile] | 1.01 ± 0.022 | 1.06 ± 0.038 | 1.02 ± 0.021 | 0.934 ± 0.14 | 1.01 | 0.983 ± 0.03
19 | CCCNC[C@H](O)COc1ccccc1C(=O)CCc1ccccc1 [(S)-(-)-propafenone hydrochloride] | 0.99967 ± 0.00058 | 0.9747 ± 0.0047 | 1.02 ± 0.026 | 1.02 ± 0.015 | 0.9967 ± 0.0058 | 0.995 ± 0.005
20 | N=C(N)NC(=N)NCCc1ccccc1 [Phenformin hydrochloride] | 0.979 ± 0.011 | 0.9773 ± 0.0032 | 1.01 ± 0.012 | 1 ± 0.034 | 1.001 ± 0.009 | 0.983 ± 0.015
21 | CN1CCC(=C2c3ccccc3C=Cc3ccccc32)CC1 [Cyproheptadine HCl] | 1.01 | 1.03 ± 0.011 | 1 ± 0.025 | 1.017 ± 0.0058 | 1.002 ± 0.0072 | 1.003 ± 0.0061
22 | CN1CCC(=C2c3ccccc3C=Cc3ccccc32)CC1 [Cyproheptadine hydrochloride] | 0.9953 ± 0.0045 | 0.968 ± 0.012 | 0.9937 ± 0.0021 | 0.998 ± 0.018 | 0.9967 ± 0.0058 | 0.987 ± 0.0092
23 | NCC(O)C1CCCCCCC1 (stereo unspecified) [2-Cyclooctyl-2-hydroxyethylamine hydrochloride] | 0.987 ± 0.012 | 0.971 ± 0.016 | 0.998 ± 0.013 | 0.972 ± 0.02 | 0.9697 ± 0.0015 | 0.9663 ± 0.0085
24 | CN1CCN(CC/C=C2/c3ccccc3Sc3ccc(S(=O)(=O)N(C)C)cc32)CC1 [Thiothixene hydrochloride] | 0.981 ± 0.0066 | 0.929 ± 0.033 | 1.01 ± 0.018 | 1 ± 0.014 | 0.9763 ± 0.0042 | 0.984 ± 0.0085
25 | CC(C)(C=O)Cc1cc(C(C)(C)C)c(O)c(C(C)(C)C)c1 | 1.01 ± 0.01 | 1.017 ± 0.0058 | 1.013 ± 0.0058 | 1.005 ± 0.0071 | 0.988 ± 0.0076 | 1.005 ± 0.0087
26 | O=C(/C=C/C#Cc1cccc(NS(=O)(=O)c2ccccc2)c1)NO [Oxamflatin] | 0.974 ± 0.015 | 0.599 ± 0.44 | 0.992 ± 0.019 | 0.901 ± 0.11 | 0.843 ± 0.17 | 0.509 ± 0.54
